Measurements: PubChem BioAssay AID485294 (National Center for Advancing Translational Sciences (NCATS), 2010)
In all, about 370,000 compounds went through this assay and about 150 (0.041%) were called active. This list was built around the results that the source calls inconclusive (neither active nor inactive); the mix of calls is not that of the screen. Calls follow the shape of the dose curve; as a rule, active = well fitted inhibition curve with a large enough effect; inconclusive = small, poorly fitted or top-dose-only effect; inactive = flat fitted curve, though single readings scatter. No potency is given beside an inconclusive call; the fits are too rough.

Target: Beta-lactamase (Escherichia coli (strain K12)) (UniProt P00811)
Sequence of UniProt P00811 (P00811 whole entry, looked up): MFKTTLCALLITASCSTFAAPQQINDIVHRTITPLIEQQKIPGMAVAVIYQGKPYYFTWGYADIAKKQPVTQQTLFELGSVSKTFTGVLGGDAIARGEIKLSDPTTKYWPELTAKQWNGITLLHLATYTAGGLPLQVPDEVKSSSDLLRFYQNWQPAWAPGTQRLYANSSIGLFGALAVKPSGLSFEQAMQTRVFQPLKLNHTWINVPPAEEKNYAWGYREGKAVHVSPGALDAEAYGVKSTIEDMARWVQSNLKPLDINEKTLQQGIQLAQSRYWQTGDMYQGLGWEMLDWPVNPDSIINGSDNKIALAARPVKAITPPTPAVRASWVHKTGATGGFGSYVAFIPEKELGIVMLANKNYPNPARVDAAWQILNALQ
Experiment: qHTS Inhibitors of AmpC Beta-Lactamase (assay with detergent); also: nearly all actives have a fitted effect of over 25% in size
Details: AmpC hydrolysis of nitrocefin, absorbance 480 nm, 0.01% Triton; series mostly up to 114 µM
Outline: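 20 mM phosphate pH 7.0 + 0.01% (detergent screen) or 0.0001% Triton X-100; 5.3 nM AmpC reagent; cpd preinc 15 min RT; nitrocefin (800 uM stock) to start; A480 q20 s × 4 min; Activity was normalised to no-enzyme and no-compound control wells.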
Potency is read from the fitted curve at half-maximal effect; tags tell the direction and shape of the fitted curve.

SMILES	Potency
COCCCNC(=O)CN(c1cc(OC)ccc1OC)S(=O)(=O)c1ccccc1	inconclusive [inhibitor, single point]
CCOC(=O)CN(Cc1ccccc1)C(C(=O)NC1CCCCC1)c1ccc(C)cc1 (stereo unspecified)	inactive
O=C(CCc1nnc(-c2ccc3c(c2)OCO3)o1)N1CCC(c2ccc(F)cc2)C1 (stereo unspecified)	inactive
COc1ccc(CNC(=O)c2ccc(-c3nc(CSc4ccc(C)cc4)c(C)o3)cc2)cc1OC	inactive
COc1cc2c(cc1OC)C1=C(C#N)CN(CC(=O)O)CN1CC2	inactive
CCOC(=O)N1CCC(NC(=O)c2cc(S(=O)(=O)N(CC)CC)ccc2F)CC1	inconclusive [inhibitor, full curve]
Cn1cc(CN2CCC(N3CCNC(=O)CC3)CC2)c(-c2ccccc2F)n1	inactive
O=C(NC1CC2CCC1C2)c1ccc(CN2CCOCC2)cc1 (stereo unspecified)	inconclusive [inhibitor, single point]
Cc1ccc(C(=O)OC(C)C(=O)NC(C)CCc2ccccc2)o1 (stereo unspecified)	inactive
O=C(O)CCC(=O)N1CCN(S(=O)(=O)c2ccc3ccccc3c2)CC1	inactive
CCCCNC(=O)CC(C(=O)N1CCc2ccccc21)n1ccnc1 (stereo unspecified)	inconclusive [inhibitor, single point]
Cc1cc(C)n2nc(C(=O)Nc3cccnc3)nc2n1	inactive
O=C(Nc1ccccc1)N(CCCN1CCOCC1)Cc1cc2cc3c(cc2[nH]c1=O)OCCO3	inconclusive [inhibitor, single point]
COc1ccc(N2CCN(c3ncnc4c3cnn4-c3ccc(C)c(Cl)c3)CC2)cc1	inactive
CCOCCCNCc1ccc(OC)c(OC)c1	inconclusive [inhibitor, partial curve, poor fit]
CCC(C)N1CCN(C(=O)COc2ccc3ccccc3c2)CC1 (stereo unspecified)	inconclusive [inhibitor, partial curve]
CC1=C(C(=O)OC2CCCCCC2)C(c2ccc(C)o2)C2=C(CCCC2=O)N1 (stereo unspecified)	inactive
CCOC(=O)c1[nH]c(C)c(/C(O)=C2\C(=O)C(=O)N(CCN(C)C)C2c2ccc(C)o2)c1C (stereo unspecified)	inconclusive [inhibitor, partial curve, poor fit]
COc1ccc(N2CCN(CC(O)COc3ccc(C)cc3C)CC2)cc1 (stereo unspecified)	inactive
O=C(O)CC1(CC(=O)N2CCN(CCO)CC2)CCCC1	inactive
CCCCCn1c2nc3ccccc3nc2c2c(=O)n(CC(C)C)cnc21	inconclusive [inhibitor, full curve]
CCCn1c(Cc2ccccc2)nnc1SCC(=O)N1CCOCC1	inconclusive [inhibitor, full curve, poor fit]
CC(=O)N1C(=O)C2(C(C#N)=C(N)Oc3c2c(C)nn3-c2ccccc2)c2ccccc21 (stereo unspecified)	inconclusive [inhibitor, full curve, poor fit]
COc1ccc(C[C@@H]2CN3C(=NC[C@@H]3C)N2C[C@H](C)NC(=O)c2ccc(C)c(Br)c2)cc1	inactive

SMILES	Potency
O=S(=O)(Nc1ccc(-n2cnnn2)cc1)c1cccs1	inactive
N#Cc1ccc(CSc2ccc(S(=O)(=O)N3CCCCCC3)cn2)cc1	inconclusive [inhibitor, full curve, poor fit]
CCOc1ccc(NC(=O)NC2CCS(=O)(=O)C2)cc1 (stereo unspecified)	inactive
CC(C)CC(NC(N)=O)C(=O)OCC(=O)N(Cc1ccccc1)Cc1ccccc1 (stereo unspecified)	inconclusive [inhibitor, full curve, poor fit]
Cc1ccc(OCC(=O)Nc2ccc(OCc3cc(=O)n4ccsc4n3)cc2)cc1	inactive
CN(CC(=O)Nc1cccc(F)c1)C(=O)c1cc(-c2ccccc2)nc2ccccc12	inconclusive [inhibitor, single point]
CCCCNC(=O)NNC(=O)c1ccc(F)cc1	inconclusive [inhibitor, full curve]
CC(=O)Nc1ccc(NC(=O)c2cccc(-c3cc4ccccc4oc3=O)c2)cc1	inactive
COc1ccc(C(=O)Oc2ccc(=O)n(-c3ccccc3)n2)cc1	inconclusive [inhibitor, single point]
CCCCn1c(=O)[nH]c(=O)c2c1nc(-c1ccc(-c3ccc(F)cc3)o1)n2C	inconclusive [inhibitor, partial curve]
CCOC(=O)N1CCN(c2nc(-c3cccs3)nc3ccccc23)CC1	inactive
CCOC(=O)C1CCCN(C(=O)c2ccc(CNc3c(N4CCC(C)CC4)c(=O)c3=O)cc2)C1 (stereo unspecified)	inconclusive [inhibitor, full curve, poor fit]
O=C(N/C(C(=O)N1CCOCC1)=C(\Sc1ncccn1)c1ccccc1)c1ccccc1	inactive
CN(C)CCN(CC1CCCN(Cc2ccccc2F)C1)C(=O)c1ccc(Cl)cc1 (stereo unspecified)	inconclusive [inhibitor, full curve, poor fit]
O=C(COC(=O)c1cccs1)Nc1ccc(S(=O)(=O)N2CCOCC2)cc1	inconclusive [inhibitor, full curve, poor fit]
Cc1nc2nc(SCC(=O)Nc3cccc(Cl)c3)nn2c(C)c1Cc1ccccc1	inactive
NC(=O)C1CCN(CC(O)COc2ccc(-c3ccccc3)cc2)CC1 (stereo unspecified)	inconclusive [inhibitor, full curve, poor fit]
Cc1ccc(Nc2nc3ccccc3s2)cc1	inconclusive [inhibitor, single point]
COc1ccc(-c2nc(C)c(CCNC(=O)c3ccc(F)c(F)c3)s2)cc1	inactive
CC(C)NC(=O)[C@@H]1C[C@@]1(C)[C@@H](NC(=O)OCc1ccccc1)c1ccccc1	inconclusive [inhibitor, partial curve, poor fit]
CC(=O)c1cccc(NC(=O)C2CCCN(S(C)(=O)=O)C2)c1 (stereo unspecified)	inconclusive [inhibitor, full curve, poor fit]
CCN(c1ccc(C(O)(C(=O)OC)C(F)(F)F)cc1)S(=O)(=O)c1ccccc1 (stereo unspecified)	inactive
CC(C(=O)N/N=C/c1ccc(N(C)C)c(Br)c1)N(c1ccccc1)S(C)(=O)=O (stereo unspecified)	inconclusive [inhibitor, partial curve]
CCCCn1c(N)c(N(Cc2ccccc2OC)C(=O)c2ccc([N+](=O)[O-])s2)c(=O)[nH]c1=O	inactive

SMILES	Potency
CCOC(=O)c1cccc(NC(=O)c2ccc(NC(=O)c3ccco3)cc2)c1	inactive
CCN1CCN(C(=O)C2CCN(C(=O)Nc3ccccc3)CC2)CC1	inactive
CS(=O)(=O)c1ccc2nc(NC(=O)c3cc(-c4ccccc4)nn3-c3ccccc3)sc2c1	inconclusive [inhibitor, partial curve, poor fit]
Cc1cc(C(=O)COc2cccnc2[N+](=O)[O-])c(C)n1-c1ccccc1	inconclusive [inhibitor, full curve, poor fit]
COc1ccccc1CNC(=O)C(C)c1ccc([N+](=O)[O-])cc1 (stereo unspecified)	inconclusive [inhibitor, single point]
CN1C/C(=N\S(=O)(=O)c2ccccc2)N(C)C1=O	inconclusive [inhibitor, full curve, poor fit]
CCCOc1ccc(Cc2c(Cl)nc(SC)nc2OC)cc1	inactive
CN1C(=O)[C@H]2[C@@H](C3CC3)N3C(=O)CN(CC4CC4)C(=O)[C@@]3(C)[C@H]2C1=O	inconclusive [inhibitor, full curve, poor fit]
O=S(=O)(Nc1ccccc1Br)c1cccs1	inconclusive [inhibitor, full curve]
O=C(Cc1ccccc1F)Nc1nc(-c2cccs2)cs1	inconclusive [inhibitor, partial curve]
O=C(Cn1nc(-c2ccccc2)ccc1=O)NCC1CCCO1 (stereo unspecified)	inconclusive [inhibitor, single point]
CC(C)C(=O)Nc1nnc(CCN2CCOCC2)s1	inconclusive [inhibitor, full curve, poor fit]
CN(CCNC(=O)c1cccc(N2CCCC2=O)c1)Cc1ccccc1	inconclusive [inhibitor, full curve, poor fit]
Cc1onc(-c2ccccc2)c1C(=O)Nc1ccon1	inconclusive [inhibitor, full curve, poor fit]
CN(CC(=O)Nc1ccccc1C(F)(F)F)C(=O)Cn1c(=O)oc2ccccc21	inconclusive [inhibitor, partial curve]
COCCNC(=O)Cn1nc(-c2ccc(C)cc2)ccc1=O	inconclusive [inhibitor, full curve, poor fit]
CCOc1ccc2nc(N3CCC(C(=O)Nc4nnc(CC)s4)CC3)sc2c1	inactive
Cc1nnc(SCC(=O)N2CCOCC2)c2ccccc12	inconclusive [inhibitor, partial curve, poor fit]
O=C(N/N=C/c1cccnc1)c1ccccc1[N+](=O)[O-]	inconclusive [inhibitor, full curve, poor fit]
Cn1cnc(S(=O)(=O)Nc2ccc(OC(F)F)cc2)c1	inconclusive [inhibitor, full curve]
Cc1ccc(CNC(=O)c2cc3c(s2)CN(Cc2ccccc2)C3)cc1	inactive
CCc1ccc(-n2nc3ccc(NC(=O)c4cc(Cl)c(OC)c(Cl)c4)cc3n2)cc1	inactive
CCOc1ccc(C2C(=O)N(C3CCCCCC3)CC(=O)N2CCC2=CCCCC2)cc1OC (stereo unspecified)	inactive
